Laboratory results as given in publication PMC4336329 (PLoS ONE, 2015).
Among all 310,000 compounds or so, about 14,000 (4.5%) showed an effect of 50% or more. Effects have a minus sign here. This is one part of the list.

biological target: human ether-à-go-go-related gene (hERG) potassium channel (human, UniProt Q12809); experiment: primary screen, population patch clamp on CHO cells stably expressing hERG
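Further: peak tail current of the secondary pulse compared with the same well before compound.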

Sequence of human ether-à-go-go-related gene (hERG) potassium channel (Q12809 whole entry, looked up): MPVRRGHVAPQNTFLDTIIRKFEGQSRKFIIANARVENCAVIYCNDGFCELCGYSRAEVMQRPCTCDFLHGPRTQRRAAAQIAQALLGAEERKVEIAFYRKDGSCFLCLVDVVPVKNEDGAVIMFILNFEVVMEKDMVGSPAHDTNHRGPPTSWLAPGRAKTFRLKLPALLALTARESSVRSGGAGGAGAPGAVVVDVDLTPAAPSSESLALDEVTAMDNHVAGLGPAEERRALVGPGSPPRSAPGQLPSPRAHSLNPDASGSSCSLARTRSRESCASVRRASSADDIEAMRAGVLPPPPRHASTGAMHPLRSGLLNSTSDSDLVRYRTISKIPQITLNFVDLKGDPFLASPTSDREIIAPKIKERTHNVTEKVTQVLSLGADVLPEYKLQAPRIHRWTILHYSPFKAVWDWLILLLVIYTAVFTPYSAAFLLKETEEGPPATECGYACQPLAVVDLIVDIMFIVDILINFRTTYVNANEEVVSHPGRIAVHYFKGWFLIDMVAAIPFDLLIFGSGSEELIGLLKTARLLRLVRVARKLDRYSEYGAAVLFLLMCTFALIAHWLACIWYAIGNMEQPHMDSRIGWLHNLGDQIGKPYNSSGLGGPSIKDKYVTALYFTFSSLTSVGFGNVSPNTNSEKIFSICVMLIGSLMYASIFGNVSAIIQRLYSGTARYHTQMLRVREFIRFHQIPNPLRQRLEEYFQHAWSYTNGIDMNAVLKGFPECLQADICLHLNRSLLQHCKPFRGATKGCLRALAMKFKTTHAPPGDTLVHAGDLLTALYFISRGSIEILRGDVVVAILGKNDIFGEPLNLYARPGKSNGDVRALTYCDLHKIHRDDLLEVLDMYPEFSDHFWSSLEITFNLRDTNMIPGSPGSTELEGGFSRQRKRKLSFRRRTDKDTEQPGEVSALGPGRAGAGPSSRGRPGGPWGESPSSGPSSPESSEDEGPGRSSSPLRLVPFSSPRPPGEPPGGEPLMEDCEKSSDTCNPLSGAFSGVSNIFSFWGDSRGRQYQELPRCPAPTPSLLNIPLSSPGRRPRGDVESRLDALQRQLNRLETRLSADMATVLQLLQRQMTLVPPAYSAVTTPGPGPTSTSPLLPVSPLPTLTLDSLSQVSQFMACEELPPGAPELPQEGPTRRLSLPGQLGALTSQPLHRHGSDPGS

SMILES	hERG current change (%, negative = inhibition) at 10uM [%]
CC(C)(C)c1cc(NC(=O)C2CCCO2)no1 (stereo not drawn)	11.6
O=C(NC1CCCCC1)c1ccc(S(=O)(=O)c2ccccc2Cl)c([N+](=O)[O-])c1	1.94
CCCCCCCCCCCCOC(=O)C[N+](C)(C)C.[Cl-]	-38
CCOC(=O)C1=C(c2ccccc2)NC(SCC(=O)Nc2ccccc2C)=C(C#N)C1c1ccco1 (stereo not drawn)	-10.9
Nc1c(C(=O)NCCc2ccccc2)nnn1Cc1ccc(Cl)cc1	7.74
COc1ccccc1CNC(=O)CN1C(=O)CSc2ccc(S(=O)(=O)N3CCCC3)cc21	-9.41
O=C(Cc1ccsc1)Nc1ccc2c(c1)OCO2	2.66
CC(NC(=O)C12CC3CC(CC(C3)C1)C2)C(=O)NCCN(C)C.Cl (stereo not drawn)	7.29
COc1ccc(/C=C(/NC(=O)c2ccc(C)cc2)c2nc3ccccc3[nH]2)cc1OC	2.27
Cc1nn(CC(=O)NCC2CCCO2)c(=O)c2ccccc12 (stereo not drawn)	3.34
Cc1cc(S(=O)(=O)N2CCCCC2)ccc1OCC(=O)Nc1ccccc1	9.09
COc1cccc(CNC(=O)CCCCCNC(=O)N2CCn3c2nc2ccccc23)c1	-8.26
CCOc1ccc(C2CC(c3ccc(F)cc3)n3ncnc3N2)cc1 (stereo not drawn)	-0.682
Cc1[nH]n(C)c(=O)c1C(=O)c1c(-c2c(Cl)cccc2Cl)noc1C	-17.7
COc1ccccc1NC(NC(=O)c1cccnc1)C(Cl)(Cl)Cl (stereo not drawn)	-27.8
c1ccc(Oc2ccc(-c3ccn[nH]3)cc2)cc1	-18.5
O=C(Nc1cccc(Cl)c1)Nc1ccc(Cl)cn1	4.88
Cc1ccccc1NC(=O)CSc1nc2ccccc2c(=O)n1C	1.39
Cc1ccc(-n2nc3c(N4CCC(C(=O)NCCc5ccccc5C)CC4)nnc(C)c3c2C)cc1	11.8
N#CC1(NC(=O)CSc2ccccn2)CCCCC1	2.94
O=C(O)c1c(-c2ccccc2)nnc2ccccc12	13.5
CCN(CC)S(=O)(=O)c1ccc(C)c(NC(=O)CN2CCN(Cc3ccccc3)CC2)c1.Cl	-69.1
COc1ccc(NC(=O)CCCn2c(=O)c3sccc3n(Cc3ccccc3)c2=O)cc1	-20.8

SMILES	hERG current change (%, negative = inhibition) at 10uM [%]
CC(C)Oc1cc(N)c(Cl)cc1Cl	17.3
O=C(NCCc1csc(-c2cccnc2)n1)c1ccc(Br)o1	-10.9
Cc1cc[n+](CC(=O)c2ccccc2)c2ccccc12.[Br-]	-8.1
O=C(Cc1ccccc1[N+](=O)[O-])NCc1ccncc1	6.57
CCc1nn(C(C)C(=O)N2CCN(c3ccc(OC)cc3)CC2)c(=O)c2cc3occc3n12 (stereo not drawn)	-28.9
COc1cc(C(=O)Nc2nnc(C3=COCCO3)o2)cc(OC)c1OC	21.8
COc1ccc(-n2c(=O)c3ccccc3n(CC(=O)NC3CCCCC3)c2=O)cc1	7.98
O=S1(=O)CCOCCCN1Cc1ccccc1	-0.196
CC(=O)c1cccc(NC(=O)c2ccco2)c1	7.09
O=C(CN1CCN(C/C=C/c2ccccc2)CC1)NCc1ccc(Cl)cc1	-78
CC1(C)CC(=O)C(C=NCc2ccccn2)=C(O)C1	3.95
COC(=O)Cn1c(=NC(=O)C(C)(C)C)sc2c(C)cc(C)cc21	-3.64
Cc1cc(NC(=O)CSCC(=O)Nc2nc3c(C)cccc3s2)no1	3.02
CCOC(=O)C1C(=O)NC(c2ccccc2)=NC1c1ccc(C(C)C)cc1 (stereo not drawn)	-6.13
Cc1ccc(NC(=O)CNC(=O)c2cccs2)nc1	12.6
O=C(NC1CCCc2ccccc21)c1ccc([N+](=O)[O-])cc1 (stereo not drawn)	-53.4
O=C(CCCn1c(SCc2cc(=O)n3cc(Cl)ccc3n2)nc2ccccc2c1=O)NCC1CCCO1 (stereo not drawn)	-53.7
COc1ccc2nc(-c3ccc(N)cc3)[nH]c2c1	3.97
O=C(NNS(=O)(=O)c1ccc(F)cc1)C1CCN(Cc2cccc(F)c2)CC1	-13.7
CCc1cc(=O)oc2cc(C)cc(OC(C)C(=O)NC3CC(C)(C)NC(C)(C)C3)c12 (stereo not drawn)	13.1
CCN(CC)c1ccc(/C=N/NC(=O)CN2CCCc3ccccc32)cc1	-9.07
Cc1cccc(CCNS(=O)(=O)c2ccc3c(c2)CCN3C(=O)CCC(=O)O)c1	26.1
